Test results as given in the supplement of paper PMC11880418.
Where a name gives a salt, the structure may show the parent alone. The list shows a part of the results. The data scatter; read single values as rough.

tested on: SUM159; assay: ALDHbr (CSC) cell proportion score relative to DMSO vehicle (ratio to DMSO); breast (SUM159) / gastric (MKN45) / pancreatic (PANC1) / colon cancer lines; ALDHbr cells have high ALDH activity and are rich in cancer stem cells (CSC); higher = more CSC (ALDHbr) cells remaining; settings: 10 µM; 72 h
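Further: High-content imaging of ALDEFLUOR-stained cells with Hoechst-labelled nuclei in 384-well plates, triplicate wells, scored as Z-score against 0.1% DMSO vehicle, negative meaning fewer ALDHbr cells.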

Row | SMILES | ALDHbr
1 | CN(C)[C@@H]1C(=O)C(C(N)=O)=C(O)[C@@]2(O)C(=O)C3=C(O)c4c(O)ccc(Cl)c4[C@@H](O)[C@H]3C[C@@H]12 [Demeclocycline hydrochloride] | 0.766
2 | Cc1oncc1C(=O)Nc1ccc(C(F)(F)F)cc1 [Leflunomide] | 1.94
3 | CC(=O)Nc1c(I)c(C(=O)N[C@H]2C(O)O[C@H](CO)[C@@H](O)[C@@H]2O)c(I)c(N(C)C(C)=O)c1I (stereo not given in full) [Metrizamide] | 0.933
4 | CCCN1CCCC[C@H]1C(=O)Nc1c(C)cccc1C [Ropivacaine hydrochloride] | 0.787
5 | NC[C@@H]1O[C@H](O[C@H]2[C@@H](O)[C@H](O[C@@H]3[C@@H](O)[C@H](N)C[C@H](N)[C@H]3O[C@H]3O[C@H](CO)[C@@H](O)[C@H](O)[C@H]3N)O[C@@H]2CO)[C@H](N)[C@@H](O)[C@@H]1O [Paromomycin sulfate] | 1.11
6 | CN(C)CCCOc1nn(Cc2ccccc2)c2ccccc12 [Benzydamine hydrochloride] | 0.852
7 | CN(C)/N=N/c1[nH]cnc1C(N)=O [Dacarbazine] | 0.514
8 | CN(N=O)C(=O)N[C@H]1C(O)O[C@H](CO)[C@@H](O)[C@@H]1O (mixture of isomers) [Streptozotocin] | 1.06
9 | COc1cc(-c2ccc(N=Nc3ccc4c(S(=O)(=O)O)cc(S(=O)(=O)O)c(N)c4c3O)c(OC)c2)ccc1N=Nc1ccc2c(S(=O)(=O)O)cc(S(=O)(=O)O)c(N)c2c1O [Chicago sky blue 6B] | 0.798
10 | COc1ccccc1OCC(O)CN1CCN(CC(=O)Nc2c(C)cccc2C)CC1 (stereo not given) [Ranolazine] | 0.887
11 | Cc1ccc(C(=O)c2ccc(CC(=O)O)n2C)cc1 [Tolmetin sodium salt dihydrate] | 0.992
12 | C#C[C@]1(O)CC[C@H]2[C@@H]3CCC4=CC(=O)CC[C@@H]4[C@H]3CC[C@@]21C [Norethindrone] | 1.02
13 | CC(C)(C)NC[C@H](O)COc1nsnc1N1CCOCC1 [Timolol maleate salt] | 0.968
14 | NS(=O)(=O)c1cc(Cl)c(Cl)c(S(N)(=O)=O)c1 [Dichlorphenamide] | 1.05
15 | CC(Oc1ccccc1)C(=O)N[C@@H]1C(=O)N2[C@@H]1SC(C)(C)[C@@H]2C(=O)O (stereo not given in full) [Phenethicillin potassium salt] | 1.04
16 | COC(=O)C1=C(C)NC(C)=C(C(=O)OCCN(C)Cc2ccccc2)C1c1cccc([N+](=O)[O-])c1 (stereo not given) [Nicardipine hydrochloride] | 0.596
17 | CC(C(=O)O)c1ccc2c(c1)Cc1cccnc1O2 (stereo not given) [Pranoprofen] | 1.12
18 | Cn1c(=O)c2nc[nH]c2n(C)c1=O [Theophylline monohydrate] | 1.34
19 | CNCCCC1c2ccccc2C=Cc2ccccc21 [Protriptyline hydrochloride] | 0.624
20 | C[C@]12CCC(=O)C=C1C=C[C@@H]1[C@@H]2CC[C@@]2(C)[C@H]1CC[C@@]21CCC(=O)O1 [Canrenone] | 1.48
21 | NC(CO)C(=O)NNCc1ccc(O)c(O)c1O (stereo not given) [Benserazide hydrochloride] | 1.08
22 | CC(=O)OCC(=O)[C@@]12N=C(C)O[C@@H]1C[C@H]1[C@@H]3CCC4=CC(=O)C=C[C@]4(C)[C@H]3[C@@H](O)C[C@@]12C [Deflazacort] | 1.02
23 | CCCCc1nc(Cl)c(CO)n1Cc1ccc(-c2ccccc2-c2nnn[nH]2)cc1 [Losartan] | 1.05
24 | O=c1[nH]c(=O)n([C@H]2C[C@H](O)[C@@H](CO)O2)cc1I [Idoxuridine] | 1.47
25 | Nc1ccc(O)c(C(=O)O)c1 [Mesalamine] | 0.805
26 | C[C@@H]1[C@H](O)[C@@H](C)/C=C/C=C/C=C/C=C/C=C/C=C/C=C/[C@H](O[C@@H]2O[C@H](C)[C@@H](O)[C@H](N)[C@@H]2O)C[C@@H]2O[C@](O)(C[C@@H](O)C[C@@H](O)[C@H](O)CC[C@@H](O)C[C@@H](O)CC(=O)O[C@H]1C)C[C@H](O)[C@H]2C(=O)O [Amphotericin B] | 0.28

tested on: T84; assay: as above; settings: 10 µM; 72 h

Row | SMILES | ALDHbr
27 | N=C(N)NCCN1CCCCCCC1 [Guanethidine sulfate] | 1.15
28 | CC(=O)Nc1nnc(S(N)(=O)=O)s1 [Acetazolamide] | 0.871
29 | CCCc1nc2c(C)cc(-c3nc4ccccc4n3C)cc2n1Cc1ccc(-c2ccccc2C(=O)O)cc1 [Telmisartan] | 0.692
30 | NS(=O)(=O)c1cc2c(cc1Cl)N=C(CSCc1ccccc1)NS2(=O)=O [Benzthiazide] | 0.78
31 | COc1cc(C(=O)N2CCOCC2)cc(OC)c1OC [Trimetozine] | 1.09
32 | O=C1CN2Cc3c(ccc(Cl)c3Cl)N=C2N1 [Anagrelide] | 0.948
33 | CN1CCCN(C(c2ccccc2)c2ccc(Cl)cc2)CC1 (stereo not given) [Homochlorcyclizine dihydrochloride] | 0.732
34 | CC(=O)OCC1=C(C(=O)O)N2C(=O)[C@@H](NC(=O)Cc3cccs3)[C@H]2SC1 [Cephalothin sodium salt] | 0.941
35 | CC[N+](C)(CC)CCC[n+]1c(-c2ccccc2)c2cc(N)ccc2c2ccc(N)cc21 [Propidium iodide] | 1.07
36 | O=C(c1ccc(OCCN2CCCCC2)cc1)c1c(-c2ccc(O)cc2)sc2cc(O)ccc12 [Raloxifene hydrochloride] | 0.227
37 | CO/N=C(\C(=O)N[C@@H]1C(=O)N2C(C(=O)O)=C(COC(C)=O)CS[C@H]12)c1csc(N)n1 [Cefotaxime sodium salt] | 0.979
38 | COc1ccc(NS(=O)(=O)c2ccc(N)cc2)nn1 [Sulfamethoxypyridazine] | 1.06
39 | CCn1cc(C(=O)O)c(=O)c2cc(F)c(N3CCNCC3)nc21 [Enoxacin] | 0.922
40 | CN(C)[C@@H]1C(=O)C(C(N)=O)=C(O)[C@@]2(O)C(=O)C3=C(O)c4c(O)ccc(Cl)c4[C@@H](O)[C@H]3C[C@@H]12 [Demeclocycline hydrochloride] | 0.905
41 | Cc1oncc1C(=O)Nc1ccc(C(F)(F)F)cc1 [Leflunomide] | 1.04
42 | CC(=O)Nc1c(I)c(C(=O)N[C@H]2C(O)O[C@H](CO)[C@@H](O)[C@@H]2O)c(I)c(N(C)C(C)=O)c1I (stereo not given in full) [Metrizamide] | 0.96
43 | CCCN1CCCC[C@H]1C(=O)Nc1c(C)cccc1C [Ropivacaine hydrochloride] | 0.944
44 | NC[C@@H]1O[C@H](O[C@H]2[C@@H](O)[C@H](O[C@@H]3[C@@H](O)[C@H](N)C[C@H](N)[C@H]3O[C@H]3O[C@H](CO)[C@@H](O)[C@H](O)[C@H]3N)O[C@@H]2CO)[C@H](N)[C@@H](O)[C@@H]1O [Paromomycin sulfate] | 0.994
45 | CN(C)CCCOc1nn(Cc2ccccc2)c2ccccc12 [Benzydamine hydrochloride] | 0.983
46 | CN(C)/N=N/c1[nH]cnc1C(N)=O [Dacarbazine] | 1.08

Row | SMILES | ALDHbr
47 | CN(N=O)C(=O)N[C@H]1C(O)O[C@H](CO)[C@@H](O)[C@@H]1O (mixture of isomers) [Streptozotocin] | 0.863
48 | COc1cc(-c2ccc(N=Nc3ccc4c(S(=O)(=O)O)cc(S(=O)(=O)O)c(N)c4c3O)c(OC)c2)ccc1N=Nc1ccc2c(S(=O)(=O)O)cc(S(=O)(=O)O)c(N)c2c1O [Chicago sky blue 6B] | 0.848
49 | COc1ccccc1OCC(O)CN1CCN(CC(=O)Nc2c(C)cccc2C)CC1 (stereo not given) [Ranolazine] | 0.891
50 | Cc1ccc(C(=O)c2ccc(CC(=O)O)n2C)cc1 [Tolmetin sodium salt dihydrate] | 0.893
51 | C#C[C@]1(O)CC[C@H]2[C@@H]3CCC4=CC(=O)CC[C@@H]4[C@H]3CC[C@@]21C [Norethindrone] | 1.13
52 | CC(C)(C)NC[C@H](O)COc1nsnc1N1CCOCC1 [Timolol maleate salt] | 0.847
53 | NS(=O)(=O)c1cc(Cl)c(Cl)c(S(N)(=O)=O)c1 [Dichlorphenamide] | 0.953
54 | CC(Oc1ccccc1)C(=O)N[C@@H]1C(=O)N2[C@@H]1SC(C)(C)[C@@H]2C(=O)O (stereo not given in full) [Phenethicillin potassium salt] | 1.27
55 | COC(=O)C1=C(C)NC(C)=C(C(=O)OCCN(C)Cc2ccccc2)C1c1cccc([N+](=O)[O-])c1 (stereo not given) [Nicardipine hydrochloride] | 0.746
56 | CC(C(=O)O)c1ccc2c(c1)Cc1cccnc1O2 (stereo not given) [Pranoprofen] | 1.08
57 | Cn1c(=O)c2nc[nH]c2n(C)c1=O [Theophylline monohydrate] | 0.978
58 | CNCCCC1c2ccccc2C=Cc2ccccc21 [Protriptyline hydrochloride] | 0.689
59 | C[C@]12CCC(=O)C=C1C=C[C@@H]1[C@@H]2CC[C@@]2(C)[C@H]1CC[C@@]21CCC(=O)O1 [Canrenone] | 0.993
60 | NC(CO)C(=O)NNCc1ccc(O)c(O)c1O (stereo not given) [Benserazide hydrochloride] | 0.878
61 | CC(=O)OCC(=O)[C@@]12N=C(C)O[C@@H]1C[C@H]1[C@@H]3CCC4=CC(=O)C=C[C@]4(C)[C@H]3[C@@H](O)C[C@@]12C [Deflazacort] | 1.04
62 | CCCCc1nc(Cl)c(CO)n1Cc1ccc(-c2ccccc2-c2nnn[nH]2)cc1 [Losartan] | 0.949
63 | O=c1[nH]c(=O)n([C@H]2C[C@H](O)[C@@H](CO)O2)cc1I [Idoxuridine] | 0.6
64 | Nc1ccc(O)c(C(=O)O)c1 [Mesalamine] | 0.836
65 | C[C@@H]1[C@H](O)[C@@H](C)/C=C/C=C/C=C/C=C/C=C/C=C/C=C/[C@H](O[C@@H]2O[C@H](C)[C@@H](O)[C@H](N)[C@@H]2O)C[C@@H]2O[C@](O)(C[C@@H](O)C[C@@H](O)[C@H](O)CC[C@@H](O)C[C@@H](O)CC(=O)O[C@H]1C)C[C@H](O)[C@H]2C(=O)O [Amphotericin B] | 0.578
